According to US20240270806A1 (Chugai, published 2024):
Numbering of substitutions follows the chain as printed.

B1: Bivalent IL-12 fusion protein FP16 (other)
heavy: QVQLVQSGAEVKKPGSSVKVSCKASGGTFSDYYLHWSRQAPGQGLEWMGWIDPENGDTEYAPKFQGRVTITADESTSTAYMELSSLRSEDTAVYYCARNKELRYIDVWGQGTLVTVSSYSATGRSANPRGASTKGPSVFPLAPCSKSTSGGTAALGCLVKDYFPEPVTVSWNSGALTSGVHTFPAVLQSSGLYSLSSVVTVPSSSLGTQTYICNVNHKPSNTKVDKRVGGGGSGGGGS[human IgG1 Fc with changes cut from this listing]GSGGSGGSGGSGGSGGSIWELKKDVYVVELDWYPDAPGEMVVLTCDTPEEDGITWTLDQSSEVLGSGKTLTIQVKEFGDAGQYTCHKGGEVLSHSLLLLHKKEDGIWSTDILKDQKEPKNKTFLRCEAKNYSGRFTCWWLTTISTDLTFSVKSSRGSSDPQGVTCGAATLSAERVRGDNKEYEYSVECQEDSACPAAEESLPIEVMVDAVHKLKYENYTSSFFIRDIIKPDPPKNLQLKPLKNSRQVEVSWEYPDTWSTPHSYFSLTFCVQVQGKHKEKKDRVFTDKTSATVICRKNASISVRAQDRYYSSSWSEWASVPCSGGGGSGGGGSGGGGSGGGGSNLPVATPDPGMFPCLHHSQNLLRAVSNMLQKARQTLEFYPCTSEEIDHEDITKDKTSTVEACLPLELTKNESCLNSRETSFITNGSCLASRKTSFMMALCLSSIYEDLKMYQVEFKTMNAKLLMDPKRQIFLDQNMLAVIDELMQALNFNSETVPQKSSLEEPDFYKTKIKLCILLHAFRIRAVTIDRVMSYLNAS
light: DIVMTQSPLSLPVTPGEPASISCRASQSISINLHWYQQKPGQAPRQLIAFASQSISGVPSRFSGSGSGTDFTLTISSLQPEDFATYYCQQSYSFPLTFGQGTKVEIKRTVAAPSVFIFPPSDEQLKSGTASVVCLLNNFYPREAKVQWKVDNALQSGNSQESVTEQDSKDSTYSLSSTLTLSKADYEKHKVYACEVTHQGLSSPVTKSFNRGEC
B2: Bivalent IL-12 fusion protein FP17 (other)
heavy: QVQLVQSGAEVKKPGSSVKVSCKASGGTFSDYYLHWSRQAPGQGLEWMGWIDPENQDTEYAPKFQGRVTITADESTSTAYMELSSLRSEDTAVYYCARTKELRYIDVWGQGTLVTVSSYSATGRSANPRGASTKGPSVFPLAPCSKSTSGGTAALGCLVKDYFPEPVTVSWNSGALTSGVHTFPAVLQSSGLYSLSSVVTVPSSSLGTQTYICNVNHKPSNTKVDKRVGGGGSGGGGS[human IgG1 Fc with changes cut from this listing]GSGGSGGSGGSGGSGGSIWELKKDVYVVELDWYPDAPGEMVVLTCDTPEEDGITWTLDQSSEVLGSGKTLTIQVKEFGDAGQYTCHKGGEVLSHSLLLLHKKEDGIWSTDILKDQKEPKNKTFLRCEAKNYSGRFTCWWLTTISTDLTFSVKSSRGSSDPQGVTCGAATLSAERVRGDNKEYEYSVECQEDSACPAAEESLPIEVMVDAVHKLKYENYTSSFFIRDIIKPDPPKNLQLKPLKNSRQVEVSWEYPDTWSTPHSYFSLTFCVQVQGKHKEKKDRVFTDKTSATVICRKNASISVRAQDRYYSSSWSEWASVPCSGGGGSGGGGSGGGGSGGGGSNLPVATPDPGMFPCLHHSQNLLRAVSNMLQKARQTLEFYPCTSEEIDHEDITKDKTSTVEACLPLELTKNESCLNSRETSFITNGSCLASRKTSFMMALCLSSIYEDLKMYQVEFKTMNAKLLMDPKRQIFLDQNMLAVIDELMQALNFNSETVPQKSSLEEPDFYKTKIKLCILLHAFRIRAVTIDRVMSYLNAS
light: B1 light with A25S, Q27D, Y92N
B3: Bivalent IL-12 fusion protein FP19 (other)
heavy: QVQLVQSGAEVKKPGSSVKVSCKASGGTFSDYYLHWSRQAPGQGLEWMGWIDPENGDTEYAPKFQGRVTITADESTSTAYMELSSLRSEDTAVYYCARNKELRYIDVWGQGTLVTVSSTSGSGRSATPRGASTKGPSVFPLAPCSKSTSGGTAALGCLVKDYFPEPVTVSWNSGALTSGVHTFPAVLQSSGLYSLSSVVTVPSSSLGTQTYICNVNHKPSNTKVDKRVGGGGSGGGGS[human IgG1 Fc with changes cut from this listing]GSGGSGGSGGSGGSGGSIWELKKDVYVVELDWYPDAPGEMVVLTCDTPEEDGITWTLDQSSEVLGSGKTLTIQVKEFGDAGQYTCHKGGEVLSHSLLLLHKKEDGIWSTDILKDQKEPKNKTFLRCEAKNYSGRFTCWWLTTISTDLTFSVKSSRGSSDPQGVTCGAATLSAERVRGDNKEYEYSVECQEDSACPAAEESLPIEVMVDAVHKLKYENYTSSFFIRDIIKPDPPKNLQLKPLKNSRQVEVSWEYPDTWSTPHSYFSLTFCVQVQGKHKEKKDRVFTDKTSATVICRKNASISVRAQDRYYSSSWSEWASVPCSGGGGSGGGGSGGGGSGGGGSNLPVATPDPGMFPCLHHSQNLLRAVSNMLQKARQTLEFYPCTSEEIDHEDITKDKTSTVEACLPLELTKNESCLNSRETSFITNGSCLASRKTSFMMALCLSSIYEDLKMYQVEFKTMNAKLLMDPKRQIFLDQNMLAVIDELMQALNFNSETVPQKSSLEEPDFYKTKIKLCILLHAFRIRAVTIDRVMSYLNAS
light: B1 light
B4: Bivalent IL-12 fusion protein FP20 (other)
heavy: QVQLVQSGAEVKKPGSSVKVSCKASGGTFSDYYLHWSRQAPGQGLEWMGWIDPENQDTEYAPKFQGRVTITADESTSTAYMELSSLRSEDTAVYYCARTKELRYIDVWGQGTLVTVSSTSGSGRSATPRGASTKGPSVFPLAPCSKSTSGGTAALGCLVKDYFPEPVTVSWNSGALTSGVHTFPAVLQSSGLYSLSSVVTVPSSSLGTQTYICNVNHKPSNTKVDKRVGGGGSGGGGS[human IgG1 Fc with changes cut from this listing]GSGGSGGSGGSGGSGGSIWELKKDVYVVELDWYPDAPGEMVVLTCDTPEEDGITWTLDQSSEVLGSGKTLTIQVKEFGDAGQYTCHKGGEVLSHSLLLLHKKEDGIWSTDILKDQKEPKNKTFLRCEAKNYSGRFTCWWLTTISTDLTFSVKSSRGSSDPQGVTCGAATLSAERVRGDNKEYEYSVECQEDSACPAAEESLPIEVMVDAVHKLKYENYTSSFFIRDIIKPDPPKNLQLKPLKNSRQVEVSWEYPDTWSTPHSYFSLTFCVQVQGKHKEKKDRVFTDKTSATVICRKNASISVRAQDRYYSSSWSEWASVPCSGGGGSGGGGSGGGGSGGGGSNLPVATPDPGMFPCLHHSQNLLRAVSNMLQKARQTLEFYPCTSEEIDHEDITKDKTSTVEACLPLELTKNESCLNSRETSFITNGSCLASRKTSFMMALCLSSIYEDLKMYQVEFKTMNAKLLMDPKRQIFLDQNMLAVIDELMQALNFNSETVPQKSSLEEPDFYKTKIKLCILLHAFRIRAVTIDRVMSYLNAS
light: B1 light with A25S, Q27D, Y92N
B5: Bivalent IL-12 fusion protein FP21 (other)
heavy: QVQLVQSGAEVKKPGSSVKVSCKASGGTFSDYYLHWSRQAPGQGLEWMGWIDAENQDTEYAPKFQGRVTITADESTSTAYMELSSLRSEDTAVYYCARTKELRYIDQWGQGTLVTVSSTSGSGRSATPRGASTKGPSVFPLAPCSKSTSGGTAALGCLVKDYFPEPVTVSWNSGALTSGVHTFPAVLQSSGLYSLSSVVTVPSSSLGTQTYICNVNHKPSNTKVDKRVGGGGSGGGGS[human IgG1 Fc with changes cut from this listing]GSGGSGGSGGSGGSGGSIWELKKDVYVVELDWYPDAPGEMVVLTCDTPEEDGITWTLDQSSEVLGSGKTLTIQVKEFGDAGQYTCHKGGEVLSHSLLLLHKKEDGIWSTDILKDQKEPKNKTFLRCEAKNYSGRFTCWWLTTISTDLTFSVKSSRGSSDPQGVTCGAATLSAERVRGDNKEYEYSVECQEDSACPAAEESLPIEVMVDAVHKLKYENYTSSFFIRDIIKPDPPKNLQLKPLKNSRQVEVSWEYPDTWSTPHSYFSLTFCVQVQGKHKEKKDRVFTDKTSATVICRKNASISVRAQDRYYSSSWSEWASVPCSGGGGSGGGGSGGGGSGGGGSNLPVATPDPGMFPCLHHSQNLLRAVSNMLQKARQTLEFYPCTSEEIDHEDITKDKTSTVEACLPLELTKNESCLNSRETSFITNGSCLASRKTSFMMALCLSSIYEDLKMYQVEFKTMNAKLLMDPKRQIFLDQNMLAVIDELMQALNFNSETVPQKSSLEEPDFYKTKIKLCILLHAFRIRAVTIDRVMSYLNAS
light: B1 light with A25S, Q27D, S56E, Y92N
B6: Bivalent IL-12 fusion protein FP22 (other)
heavy: QVQLVQSGAEVKKPGSSVKVSCKASGGTFSDYYLHWSRQAPGQGLEWMGWIDPENQDTEYAPKFQGRVTITADESTSTAYMELSSLRSEDTAVYYCARTKELRYIDVWGQGTLVTVSSTSGSGRSATPRGASTKGPSVFPLAPCSKSTSGGTAALGCLVKDYFPEPVTVSWNSGALTSGVHTFPAVLQSSGLYSLSSVVTVPSSSLGTQTYICNVNHKPSNTKVDKRVGGGGSGGGGS[human IgG1 Fc with changes cut from this listing]GSGGSGGSGGSGGSGGSIWELKKDVYVVELDWYPDAPGEMVVLTCDTPEEDGITWTLDQSSEVLGSGKTLTIQVKEFGDAGQYTCHKGGEVLSHSLLLLHKKEDGIWSTDILKDQKEPKNKTFLRCEAKNYSGRFTCWWLTTISTDLTFSVKSSRGSSDPQGVTCGAATLSAERVRGDNKEYEYSVECQEDSACPAAEESLPIEVMVDAVHKLKYENYTSSFFIRDIIKPDPPKNLQLKPLKNSRQVEVSWEYPDTWSTPHSYFSLTFCVQVQGKHKEKKDRVFTDKTSATVICRKNASISVRAQDRYYSSSWSEWASVPCSGGGGSGGGGSGGGGSGGGGSNLPVATPDPGMFPCLHHSQNLLRAVSNMLQKARQTLEFYPCTSEEIDHEDITKDKTSTVEACLPLELTKNESCLNSRETSFITNGSCLASRKTSFMMALCLSSIYEDLKMYQVEFKTMNAKLLMDPKRQIFLDQNMLAVIDELMQALNFNSETVPQKSSLEEPDFYKTKIKLCILLHAFRIRAVTIDRVMSYLNAS
light: B1 light with A25S, Q27D, S56E, Y92N
B7: Bivalent IL-12 fusion protein FP15 (other)
heavy: QVQLVQSGAEVKKPGSSVKVSCKASGGTFSDYYLHWSRQAPGQGLEWMGWIDPENGDTEYAPKFQGRVTITADESTSTAYMELSSLRSEDTAVYYCARNKELRYIDVWGQGTLVTVSSYSATGRSANPRGASTKGPSVFPLAPCSKSTSGGTAALGCLVKDYFPEPVTVSWNSGALTSGVHTFPAVLQSSGLYSLSSVVTVPSSSLGTQTYICNVNHKPSNTKVDKRVGGGGSGGGGS[human IgG1 Fc with changes cut from this listing]GSGGSGGSGGSGGSGGSIWELKKDVYVVELDWYPDAPGEMVVLTCDTPEEDGITWTLDQSSEVLGSGKTLTIQVKEFGDAGQYTCHKGGEVLSHSLLLLHKKEDGIWSTDILKDQKEPKNKTFLRCEAKNYSGRFTCWWLTTISTDLTFSVKSSRGSSDPQGVTCGAATLSAERVRGDNKEYEYSVECQEDSACPAAEESLPIEVMVDAVHKLKYENYTSSFFIRDIIKPDPPKNLQLKPLKNSRQVEVSWEYPDTWSTPHSYFSLTFCVQVQGKHKEKKDRVFTDKTSATVICRKNASISVRAQDRYYSSSWSEWASVPCSGGGGSGGGGSGGGGSGGGGSNLPVATPDPGMFPCLHHSQNLLRAVSNMLQKARQTLEFYPCTSEEIDHEDITKDKTSTVEACLPLELTKNESCLNSRETSFITNGSCLASRKTSFMMALCLSSIYEDLKMYQVEFKTMNAKLLMDPKRQIFLDQNMLAVIDELMQALNFNSETVPQKSSLEEPDFYKTKIKLCILLHAFRIRAVTIDRVMSYLNAS
light: B1 light with Y92N
B8: Bivalent IL-12 fusion protein FP8 (Ab101H-12aa-C4-L4-IL12006/Ab102L-SK1) (other)
heavy: QVQLVQSGAEVKKPGSSVKVSCKASGGTFSDYYLHWVRQAPGQGLEWMGWIDPENGDTEYAPKFQGRVTITADESTSTAYMELSSLRSEDTAVYYCARNKELRYFDVWGQGTLVTVSSTSTSGRSANPRGASTKGPSVFPLAPCSKSTSGGTAALGCLVKDYFPEPVTVSWNSGALTSGVHTFPAVLQSSGLYSLSSVVTVPSSSLGTQTYICNVNHKPSNTKVDKRVGGGGSGGGGS[human IgG1 Fc with changes cut from this listing]GSGGSGGSGGSGGSGGSIWELKKDVYVVELDWYPDAPGEMVVLTCDTPEEDGITWTLDQSSEVLGSGKTLTIQVKEFGDAGQYTCHKGGEVLSHSLLLLHKKEDGIWSTDILKDQKEPKNKTFLRCEAKQYSGRFTCWWLTTISTDLTFSVKSSRGSSDPQGVTCGAATLSAERVRGDNKEYEYSVECQEDSACPAAEESLPIEVMVDAVHKLKYEQYTSSFFIRDIIKPDPPKNLQLKPLKNSRQVEVSWEYPDTWSTPHSYFSLTFCVQVQGKSKREKKDRVFTDKTSATVICRKNASISVRAQDRYYSSSWSEWASVPCSGGGGSGGGGSGGGGSGGGGSRNLPVAAPDPGMFPCLHHSQNLLRAVSNMLQKARQTLEFYPCTSEEIDHEDITKDKTSTVEACLPLELTKQESCLNSRETSFITQGSCLASRKTSFMMALCLSSIYEDLKMYQVEFKTMNAKLLMDPKRQIFLDQNMLAVIDELMQALNFNSETVPQKSSLEEPDFYKTKIKLCILLHAFRIRAVTIDRVMSYLQAS
light: B1 light with Q46L, A49Y, Y92N

target: T1, Human IL-12 receptor (human IL-12Rb1 and IL-12Rb2) (human, UniProt P42701 24-662; Q99665 24-862); assay: cell-based or functional assay

Binder | Fold change (window), IL-12 luciferase assay [fold]
B1 | 27
B2 | 30.6
B3 | 54.9
B4 | 75.7
B5 | 42.9
B6 | 42.9
B7 | 15.6

target: T1, Human IL-12 receptor (human IL-12Rb1 …); assay: cell-based or functional assay; remark: another data set of the same source

Binder | EC50 (read off the curve), IL-12 luciferase reporter assay (+ MTSP1) [top graph] [nM]
B8 | ~0.3
